# Laboratory results as given in the supplement of paper PMC11348887.
# Several values for one entry are separate records, joined by “and”; a condition that tells them apart may be missing. Equal entries are not always repeated. Structures can show the parent of a compound that is named as a salt. Some of the results follow. Rule as the data show it: active = -2 or less and inactive = the rest. Most values come without repeats; read them as rough.
# Tested on: hPSC-derived cortical neurons (WA09)
# Assay: nuclei number (viability) z-score; higher = more surviving cells
# Conditions: 5 µM; treatment: days 7-14 after plating, readout day 21
# 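Also: nuclei counted from DAPI counterstain by automated high-content image analysis, four fields per well at ×20 in 384-well plates, with sequential b-score then z-score normalization.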
row,Structure (SMILES),nuclei number (z-score)
1,Cc1cc2c(cc1S(N)(=O)=O)S(=O)(=O)CCC2 [Meticrane],inactive: 0.488
2,COCCOc1cnc2ccn([C@H](C)c3nnc4c(F)cc(-c5cnn(C)c5)cn34)c(=O)c2c1,inactive: 1.34
3,COC(=O)C1=C(C)NC(C)=C(C(=O)OCCN2CCN(C(c3ccccc3)c3ccccc3)CC2)C1c1cccc([N+](=O)[O-])c1 (stereo unspecified) [Manidipine 2HCl],active: -8.02
4,COC(=O)C1=C(C)NC(C)=C(C(=O)OCCN2CCN(C(c3ccccc3)c3ccccc3)CC2)C1c1cccc([N+](=O)[O-])c1 (stereo unspecified) [Manidipine],inactive: -1.37
5,CC(C)N(C[C@H]1O[C@@H](n2cnc3c(N)ncnc32)[C@H](O)[C@@H]1O)[C@H]1C[C@@H](CCc2nc3cc(C(C)(C)C)ccc3[nH]2)C1,inactive: 0.459
6,COC(c1ccccc1)(c1ccccc1)[C@H](Oc1nc(C)cc(C)n1)C(=O)O [Ambrisentan],inactive: -0.215
7,C[N+]1(C)[C@@H]2CC[C@H]1C[C@@H](OC(=O)C(O)c1ccccc1)C2 (stereo partly specified) [Homatropine Methylbromide],inactive: 0.0907
8,CC(C(=O)O)c1ccc2c(c1)Cc1cccnc1O2 (stereo unspecified) [Pranoprofen],inactive: 3.7
9,CC(C)(C)C(=O)Oc1ccc(S(=O)(=O)Nc2ccccc2C(=O)NCC(=O)O)cc1 [Sivelestat sodium tetrahydrate],inactive: 0.0853
10,CC(C)(C)C(=O)Oc1ccc(S(=O)(=O)Nc2ccccc2C(=O)NCC(=O)O)cc1 [Sivelestat (ONO-5046)],inactive: 0.242
11,O=C(N/N=C/c1cc(O)c(O)cc1O)c1cc2ccccc2cc1O [Dyngo-4a],inactive: 0.158
12,Clc1ccc(NN=C(c2ccccc2)c2ccccn2)nc1,active: -4.3
13,C[N+]1(C)[C@@H]2C[C@@H](OC(=O)C(O)(c3cccs3)c3cccs3)C[C@H]1[C@@H]1O[C@@H]12 [Tiotropium Bromide hydrate],inactive: -0.0498
14,CC(=O)Nc1ccccc1 [Acetanilide],inactive: 0.3
15,O=C(/C=C/c1ccc2ccccc2n1)c1ccncc1,inactive: 0.461
16,Cc1cc(C(N)=O)ccc1-n1c(CCC(=O)O)ccc1-c1ccc(-n2ccnc2)cc1,inactive: 1.83
17,COC(=O)C[C@H](NC(=O)[C@H](C)NC(=O)[C@@H](NC(=O)OCc1ccccc1)C(C)C)C(=O)CF,inactive: -0.495
18,COC(=O)C[C@H](NC(=O)[C@H](C)NC(=O)[C@@H](NC(=O)OCc1ccccc1)C(C)C)C(=O)CF [Z-VAD-FMK (Caspase Inhibitor VI)],inactive: -0.0635
19,O=C[C@H](O)[C@@H](O)[C@H](O)CO [Xylose],inactive: -0.253
20,CC(=O)O[C@]1(C(C)=O)CC[C@H]2[C@@H]3C[C@H](C)C4=CC(=O)C=C[C@]4(C)[C@@]3(F)[C@@H](O)C[C@@]21C [Fluorometholone Acetate],inactive: -0.361
21,O=c1cc(N2CCOCC2)oc2c(-c3cccc4c3sc3ccccc34)cccc12,inactive: -0.035
22,CC(C)(C(=O)O)c1ccc(C(O)CCCN2CCC(C(O)(c3ccccc3)c3ccccc3)CC2)cc1 (stereo unspecified) [Fexofenadine HCl],inactive: 1.66

row,Structure (SMILES),nuclei number (z-score)
1,COc1ccc([C@@H]2CC(=O)c3c(O)cc(O[C@@H]4O[C@H](CO[C@@H]5O[C@@H](C)[C@H](O)[C@@H](O)[C@H]5O)[C@@H](O)[C@H](O)[C@H]4O)cc3O2)cc1O [Hesperidin],inactive: 0.614
2,COc1cccc(-c2cc(NCc3ccc4c(c3)OCO4)nc(N)n2)c1 [Wnt agonist 1],active: -6.36
3,CN(C)CC(=O)Nc1ccc2[nH]c(=O)c3ccccc3c2c1,inactive: 4.8 and inactive: 0.142
4,CNC(=O)c1cc(Oc2ccc(NC(=O)Nc3ccc(Cl)c(C(F)(F)F)c3)c(F)c2)ccn1 [Regorafenib (BAY 73-4506)],inactive: 1.13
5,CC(C)(C)NCC(O)COc1cccc2c1CCC(=O)N2 (stereo unspecified) [Carteolol HCl],inactive: -0.275
6,O=C(Nc1ccccc1-c1cn2c(CN3CCNCC3)csc2n1)c1cnc2ccccc2n1,active: -2.53
7,O=C(O)c1cc(/N=N/c2ccc(O)c(C(=O)O)c2)ccc1O [Olsalazine Sodium],inactive: -0.756
8,O=C(C1CCCCC1)N1CC(=O)N2CCc3ccccc3C2C1 (stereo unspecified) [Praziquantel],inactive: -0.933
9,C[C@@H]1CCO[C@H]2Cn3cc(C(=O)NCc4ccc(F)cc4F)c(=O)c(O)c3C(=O)N12,inactive: 0.191
10,C[C@]1(O)C[C@@H](c2nc(-c3ccc4ccc(-c5ccccc5)nc4c3)c3c(N)nccn32)C1 [OSI-906 (Linsitinib)],inactive: -0.995
11,COc1ccc2c(c1)c(CC(=O)O)c(C)n2C(=O)c1ccc(Cl)cc1 [Indomethacin],inactive: -0.695
12,CN1CCC(=C2c3ccccc3CCc3cccnc32)CC1 [Azatadine dimaleate],inactive: 0.322
13,Nc1nc2ccc(OC(F)(F)F)cc2s1 [Riluzole],inactive: 0.11
14,CC(C)C[C@H](NC(=O)[C@@H](NC(=O)c1cccc(-c2ccccc2)n1)[C@@H](C)O)B(O)O,active: -2.82
15,CNC(=O)c1cc(Oc2ccc(NC(=O)Nc3cc(C(C)(C)C)nn3-c3ccc4ncccc4c3)c(F)c2)ccn1 [DCC-2036 (Rebastinib)],inactive: -1.43
16,OC[C@H]1O[C@H](O[C@]2(CCl)O[C@H](CCl)[C@@H](O)[C@@H]2O)[C@H](O)[C@@H](O)[C@H]1Cl [Sucralose],inactive: -0.366
17,CCC/N=C1\S/C(=C\c2ccc(OC[C@H](O)CO)c(Cl)c2)C(=O)N1c1ccccc1C [Ponesimod],inactive: -0.297
18,Nc1ccn([C@H]2CC[C@@H](CO)O2)c(=O)n1 [Zalcitabine],inactive: -0.107
19,CCc1cc(Nc2nccc(-c3c(-c4ccc(OC)c(C(=O)Nc5c(F)cccc5F)c4)nc4ccccn34)n2)c(OC)cc1N1CCC(N2CCN(S(C)(=O)=O)CC2)CC1,active: -3.25
20,O=C(Nc1ccccc1C(=O)NC1CCCCNC1=O)c1cc2ccccc2s1 (stereo unspecified),inactive: 0.581
21,CC(C)(C#N)c1cc(Cn2cncn2)cc(C(C)(C)C#N)c1 [Anastrozole],inactive: 0.75
22,COc1cc2nccc(Oc3ccc(NC(=O)Nc4cc(C)on4)c(Cl)c3)c2cc1OC [Tivozanib (AV-951)],inactive: -0.17

row,Structure (SMILES),nuclei number (z-score)
1,C[C@@H](O)[C@H]1C(=O)N2C(C(=O)O)=C(S[C@@H]3CN[C@H](CNS(N)(=O)=O)C3)[C@H](C)[C@H]12 [Doripenem Hydrate],inactive: 0.238
2,COc1cccc(-n2c(=O)[nH]c3cc(Cl)n(-c4ccc(-c5cccc(OC)c5O)cc4)c3c2=O)c1,inactive: 3.05
3,Oc1c(I)cc(Cl)c2cccnc12 [Clioquinol],inactive: 0.151
4,C=CCNC(N)=S [Allylthiourea],inactive: -0.183
5,CNC(=O)c1cccc(-c2ccc3c(N4CCOC[C@@H]4C)nc(N4CCOC[C@@H]4C)nc3n2)c1,inactive: -1.79
6,CN(C)CCOC(C)(c1ccccc1)c1ccccn1 (stereo unspecified) [Doxylamine Succinate],inactive: 0.405
7,COc1cccc(-c2cc(=O)c3ccccc3o2)c1N,inactive: 2.07
8,O=C(CCc1ccc(O)cc1)c1c(O)cc(O)cc1O [Phloretin],inactive: 0.0777
9,N#Cc1cccc(-c2c[nH]c3ncnc(N4CCOCC4)c23)c1,inactive: -0.201
10,CC[C@H](C)[C@H](N)C1=N[C@H](C(=O)N[C@@H](CC(C)C)C(=O)N[C@H](CCC(=O)O)C(=O)N[C@H](C(=O)N[C@H]2CCCCNC(=O)[C@H](CC(N)=O)NC(=O)[C@@H](CC(=O)O)NC(=O)[C@H](Cc3cnc[nH]3)NC(=O)[C@@H](Cc3ccccc3)NC(=O)[C@H]([C@@H](C)CC)NC(=O)[C@@H](CCCN)NC2=O)[C@@H](C)CC)CS1 [Bacitracin],inactive: 0.205
11,CC(=O)NS(=O)(=O)c1ccc(NC(=O)c2ccccc2C(=O)O)cc1 [Phthalylsulfacetamide],inactive: 0.627
12,NC(=O)c1cccc2cn(-c3ccc([C@@H]4CCCNC4)cc3)nc12 [Niraparib (MK-4827) tosylate],inactive: -0.0291
13,CN(CC(=O)N(Cc1ccc(C2CCCCC2)cc1)c1ccc(C(=O)O)cc1)S(=O)(=O)c1c(F)c(F)c(F)c(F)c1F,inactive: 1.01
14,OC(CNCC(O)C1CCc2cc(F)ccc2O1)C1CCc2cc(F)ccc2O1 (stereo unspecified) [Nebivolol],inactive: -0.761
15,O=C(NCc1ccccc1)c1csc(Nc2ccncn2)n1 [Thiazovivin],inactive: 0.315
16,CNC[C@H](O)c1ccc(O)c(O)c1 [Epinephrine Bitartrate],inactive: 4.26
17,CNC[C@H](O)c1ccc(O)c(O)c1 [Epinephrine HCl],inactive: 0.193
18,CC(S)C(=O)NCC(=O)O (stereo unspecified) [Tiopronin],inactive: 0.102
19,CNCc1ccc(-c2cc(-c3nc(-c4ccc(S(=O)(=O)C(C)C)cc4)cnc3N)on2)cc1,active: -3.77
20,CN1CCN(CCCN2c3ccccc3Sc3ccc(C(F)(F)F)cc32)CC1 [Trifluoperazine 2HCl],inactive: -1.86
21,CCOC(=O)C1=C(COCCN)NC(C)=C(C(=O)OC)C1c1ccccc1Cl (stereo unspecified) [Amlodipine],inactive: -1.4
22,CCOC(=O)C1=C(COCCN)NC(C)=C(C(=O)OC)C1c1ccccc1Cl (stereo unspecified) [Amlodipine Besylate],inactive: -0.459
